The structures appear in SMILES notation. The whole screen tested about 310,000 compounds, of which about 14,000 (4.5%) showed an effect of 50% or more. The effect is printed as a negative number. The list shows a part of the results.

Results on 85 molecules are retold here after PMC4336329 (PLoS ONE, 2015).
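Also: peak tail current of the secondary pulse compared with the same well before compound.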

The target of this experiment is human ether-à-go-go-related gene (hERG) potassium channel (human, UniProt Q12809). Nature of the experiment: primary screen, population patch clamp on CHO cells stably expressing hERG.
human ether-à-go-go-related gene (hERG) potassium channel, sequence (Q12809 whole entry, looked up): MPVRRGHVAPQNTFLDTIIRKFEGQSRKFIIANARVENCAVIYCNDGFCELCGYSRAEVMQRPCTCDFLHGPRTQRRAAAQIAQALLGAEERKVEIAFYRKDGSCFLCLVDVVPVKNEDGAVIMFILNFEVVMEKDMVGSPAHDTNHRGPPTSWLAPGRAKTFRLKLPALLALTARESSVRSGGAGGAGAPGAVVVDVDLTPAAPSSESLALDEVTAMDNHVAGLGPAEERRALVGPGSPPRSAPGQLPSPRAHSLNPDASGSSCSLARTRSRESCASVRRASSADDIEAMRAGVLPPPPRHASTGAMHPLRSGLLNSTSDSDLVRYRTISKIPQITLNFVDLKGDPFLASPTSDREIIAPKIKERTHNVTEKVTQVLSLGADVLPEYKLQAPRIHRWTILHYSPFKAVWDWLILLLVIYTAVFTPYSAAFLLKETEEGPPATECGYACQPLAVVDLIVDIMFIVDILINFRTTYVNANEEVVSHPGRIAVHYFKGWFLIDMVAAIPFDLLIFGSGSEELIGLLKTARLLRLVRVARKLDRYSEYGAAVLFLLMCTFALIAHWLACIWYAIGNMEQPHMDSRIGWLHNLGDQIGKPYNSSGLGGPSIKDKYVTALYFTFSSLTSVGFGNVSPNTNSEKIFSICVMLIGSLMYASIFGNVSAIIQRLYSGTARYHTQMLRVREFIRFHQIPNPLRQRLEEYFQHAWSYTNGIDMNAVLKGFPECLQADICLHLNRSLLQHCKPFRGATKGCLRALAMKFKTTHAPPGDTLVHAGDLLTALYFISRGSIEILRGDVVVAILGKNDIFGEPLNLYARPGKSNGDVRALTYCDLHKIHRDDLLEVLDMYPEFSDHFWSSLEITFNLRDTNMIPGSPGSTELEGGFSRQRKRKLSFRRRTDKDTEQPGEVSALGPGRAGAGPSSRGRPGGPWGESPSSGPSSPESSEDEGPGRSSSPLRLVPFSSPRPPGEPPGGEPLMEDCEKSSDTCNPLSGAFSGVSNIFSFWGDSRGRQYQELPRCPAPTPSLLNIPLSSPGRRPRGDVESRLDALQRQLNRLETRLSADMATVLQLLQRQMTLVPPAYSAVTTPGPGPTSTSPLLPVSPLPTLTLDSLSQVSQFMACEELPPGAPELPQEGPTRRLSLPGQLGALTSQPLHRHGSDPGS
For `COc1cccc(NC(=O)CN2C(=O)NC(C)(c3ccc(C)cc3)C2=O)c1` (stereo not shown), the “hERG current change (%, negative = inhibition) at 10uM” value is -6.71%. On to `CCOc1cc(NC(=S)NCc2ccco2)c(OCC)cc1NC(=O)C1CC1`, for which the “hERG current change (%, negative = inhibition) at 10uM” value was determined as 7.87%. The value for `COc1ccc(N(CC(=O)Nc2cccnc2)S(C)(=O)=O)cc1` was -19.6%; that for `CCN(CC(=O)Nc1ccc(NC(C)=O)cc1)C(=O)/C=C/c1ccccc1` was -4.49%. As for `CCOC(=O)C1=C(COC(=O)c2ccc([N+](=O)[O-])o2)NC(=O)NC1C` (stereo not shown), the “hERG current change (%, negative = inhibition) at 10uM” value is on record as -7.36%. Turning to `C=CCn1c(O)c(N=NC(=S)Nc2ccccc2F)c2cc(S(=O)(=O)N3CCOCC3)ccc21`, the “hERG current change (%, negative = inhibition) at 10uM” value turned out to be 13.3%. For `Cc1ccc(C)c(SCC(=O)Nc2nnc(-c3ccccc3)o2)c1`, the “hERG current change (%, negative = inhibition) at 10uM” value worked out at 14.1%.

In the case of `CCN(C(=O)COC(=O)c1c2c(nc3ccccc13)/C(=C/c1ccccc1)CC(C)C2)C1CCS(=O)(=O)C1` (stereo not shown), the “hERG current change (%, negative = inhibition) at 10uM” value is listed as -0.31%.

In the case of `CCOc1ccc(S(=O)(=O)Nc2ccc(C(=O)NNC(=O)c3ccncc3)cc2)cc1`, the “hERG current change (%, negative = inhibition) at 10uM” value came to 10.3%. With `O=C(/C=C/c1cccs1)N1CCN(c2ccc(O)cc2)CC1`, the “hERG current change (%, negative = inhibition) at 10uM” value is -16.9%. Under `CCCc1nnc(NC(=O)CCC(=O)NCCc2ccc(Cl)cc2)s1` stands -1.96%; under `CCCCOc1ccc(N(CC(=O)NC2CCCC2)C(=O)CCC(=O)Nc2ccccn2)cc1`, 17.3%. Regarding `COc1cc2[nH]c(=S)nc(NCC3CCCO3)c2cc1OC` (stereo not shown), the “hERG current change (%, negative = inhibition) at 10uM” value came to 1.17%. The value for `O=C(CN1C(=O)NC2(CCCCC2)C1=O)Oc1ccc2c(C(F)(F)F)cc(=O)oc2c1` was 13.8%; that for `CCC(C)NCCOCCOc1ccc(C)cc1OC.O=C(O)C(=O)O` (stereo not shown) was -1.59%. The value for `COc1cccc(N/C(SC)=C(/C#N)C(=O)NCc2cccs2)c1` was -7.85%; that for `COc1ccc(N2CCN(CCCNC(=O)CCC(=O)N3CCOc4ccc(Cl)cc43)CC2)cc1` was -70.4%; that for `C=CCn1c(O)c(N=NC(=O)CNC(=O)/C=C/c2ccco2)c2ccccc21` was -58.2%.

As for `Cc1ccc2c(C)c(C(=O)N(Cc3cccs3)C3CCS(=O)(=O)C3)oc2c1` (stereo not shown), the “hERG current change (%, negative = inhibition) at 10uM” value is -20.8%. As to `O=C(NC1CCCCCCC1)c1ccc(F)cc1`, the “hERG current change (%, negative = inhibition) at 10uM” value amounted to 4.61%.

On to `COc1ccc(CCC(=O)NCCOc2ccc(C)cc2)cc1`, for which the “hERG current change (%, negative = inhibition) at 10uM” value was determined as 2.1%. The value for `CC1CCCN(C(=O)CN2C(=O)C(C)Oc3ccccc32)C1` (stereo not shown) was 8.2%; that for `O=C(CCNC(=O)c1ccccc1Cl)NCC12CC3CC(CC(C3)C1)C2` was 6.76%; that for `Cc1ccc([C@@H]2[C@@H]3C(=O)N(C)C(=O)[C@@H]3[C@]3(C)C(=O)N(CCO)CC(=O)N23)o1` was -23.6%. Consider `CCOC(=O)Cn1nc(/C=C/c2ccc(C(C)C)cc2)ccc1=O`, for which the “hERG current change (%, negative = inhibition) at 10uM” value is listed as -39.4%. The value for `O=C(Cn1c(=O)n(Cc2ccco2)c(=O)c2cc(Cl)ccc21)NCC1CCCO1` (stereo not shown) was -31.9%; that for `CCc1ccccc1NC(=O)CCC(=O)N1CCSc2ccccc21` was -14.7%; that for `NC(N)=NCCC[C@H](NC(=O)OCc1ccccc1)C(=O)O` was 24.5%.

As for `CCOc1ccccc1NC(=O)CN1C(=O)CSC(C)C1=O` (stereo not shown), the “hERG current change (%, negative = inhibition) at 10uM” value came out at 18.7%.

Regarding `COc1ccccc1N1CCN(C(=O)CSc2nnc3n2C(C)(C)Cc2ccccc2-3)CC1`, the “hERG current change (%, negative = inhibition) at 10uM” value was -37.4%. The value for `COC(=O)Cn1c(=NC(=O)CCS(=O)(=O)c2ccccc2)sc2c(OC)ccc(OC)c21` was 6.2%; that for `CN1CCN(/N=C/c2c(O)n(Cc3ccc(F)cc3)c(=O)[nH]c2=O)CC1` was 0.78%; that for `CCSc1nnc(NC(=O)CSc2ncccn2)s1` was -1.13%.

With `CC(C)c1ccc(/C=C2\SC(=O)N(CC(=O)NC3C=CS(=O)(=O)C3)C2=O)cc1` (stereo not shown), the “hERG current change (%, negative = inhibition) at 10uM” value is given as 5.89%.

Consider `Cc1cnc(C(=O)OCC(=O)N(C(C)C)C(C)C)cn1`, for which the “hERG current change (%, negative = inhibition) at 10uM” value was determined as 24%. With `O=C(NC1(C(F)(F)F)C(=O)Nc2c1c(=O)[nH]c(=O)n2-c1ccc(F)cc1)c1cccnc1` (stereo not shown), the “hERG current change (%, negative = inhibition) at 10uM” value is reported as 16.9%. Consider `Cc1ccc(S(=O)(=O)C2(C(=O)NCc3ccc4c(c3)OCO4)CC2)cc1`, for which the “hERG current change (%, negative = inhibition) at 10uM” value is on record as -7.05%. The value for `COc1cc([N+](=O)[O-])ccc1NC(=O)NNC(=O)c1sccc1C` was 2.32%. With `Cc1ccc(-n2ccc(=O)c(C(=O)Nc3ccc(S(=O)(=O)Nc4nccs4)cc3)n2)cc1`, the “hERG current change (%, negative = inhibition) at 10uM” value was 16.4%. The value for `Cc1ccc(Cl)cc1N1CCN(C(=O)CCC(=O)O)CC1` was 15.1%. Consider `Brc1ccccc1-n1nnc(-c2cccnc2)n1`, for which the “hERG current change (%, negative = inhibition) at 10uM” value is -9.54%. The value for `CCOC(=O)Cc1csc(NC(=O)CSc2nc3sc(C(=O)O)c(C)c3c(=O)[nH]2)n1` was -33.9%; that for `CCOc1ccc(CN2CCC(=O)NC2=O)cc1` was -5.71%. As for `O=C(Nc1cc(C(F)(F)F)ccc1N1CCCC1)c1ccc2c(c1)OCO2`, the “hERG current change (%, negative = inhibition) at 10uM” value is recorded as 3.46%.

Consider `CCCCN(C)CCC(=O)Nc1ccc(C)cc1.Cl`, for which the “hERG current change (%, negative = inhibition) at 10uM” value is given as -14.8%. Under `CCOC(=O)CNc1ccc2c(c1)OCO2` stands 14.1%; under `CC(C)(C)c1cc(P(=O)(c2ccccc2)c2ccccc2)ccc1O`, 6.08%; under `CCOC(=O)c1c(NC(=O)CCNCc2ccco2)sc2c1CCC2.O=C(O)C(=O)O`, -23.5%.

Turning to `CC(C)OC(=O)c1cc2c(ccn2C)n1CC(=O)N1CCC(Cc2ccccc2)CC1`, the “hERG current change (%, negative = inhibition) at 10uM” value is -1.62%. For the molecule `COCc1ccc(C(=O)N2CCN(CC(=O)N3CCCC3)CC2)cc1`, the “hERG current change (%, negative = inhibition) at 10uM” value is given as -16.5%. Under `COc1ccc(C(=O)NCc2cccnc2)cc1S(=O)(=O)N1CCCc2ccccc21` stands -26.3%. Consider `CC(=O)OCC(OC(C)=O)C(OC(C)=O)C(OC(C)=O)C(=O)Nc1cccc(C)c1` (stereo not shown), for which the “hERG current change (%, negative = inhibition) at 10uM” value is recorded as 26.9%.

As for `Cc1n[nH]c(C)c1S(=O)(=O)N1CCCC(C(=O)NCc2ccc(F)cc2)C1` (stereo not shown), the “hERG current change (%, negative = inhibition) at 10uM” value is 21.7%. For `Cc1cc(Br)ccc1NC(=O)c1ccc(-n2cncn2)c([N+](=O)[O-])c1`, the “hERG current change (%, negative = inhibition) at 10uM” value worked out at 12.3%. Under `CC(C)[C@H](NC(=O)C1CCCC1)c1nc2ccccc2[nH]1` stands 7.25%; under `CC(C(=O)OCc1nnc(-c2ccccc2)o1)N1C(=O)c2ccccc2C1=O` (stereo not shown), -19.2%; under `CCN(CC)c1ccc(S(=O)(=O)N(CC)CC)cc1NC(=O)c1cccnc1`, -72.5%.

On to `CCOC(=O)c1cc(C#N)c(SCc2cccc3ccccc23)nc1C`, for which the “hERG current change (%, negative = inhibition) at 10uM” value amounted to 9.85%.

For the molecule `Cc1sc2ncn(CC(=O)N3CCN(c4ccccc4F)CC3)c(=O)c2c1S(=O)(=O)N1CCOCC1`, the “hERG current change (%, negative = inhibition) at 10uM” value was -8.31%. The value for `O=C(Nc1ccc2oc(Cc3ccc(Cl)cc3)nc2c1)c1cccnc1` was -19.6%; that for `O=c1cc(-c2ccccc2Cl)oc2c(NS(=O)(=O)c3ccccc3C(F)(F)F)ccc(O)c12` was 4.79%.

As to `CC(C)Oc1ccccc1NC(=O)CSc1nc2ccccc2c(=O)n1C`, the “hERG current change (%, negative = inhibition) at 10uM” value is recorded as -14.8%. Consider `Cc1c([N+](=O)[O-])cc(C(=O)NCc2ccc(F)cc2)cc1[N+](=O)[O-]`, for which the “hERG current change (%, negative = inhibition) at 10uM” value is reported as -33.8%.

With `CCOc1nc(N2CCCCC2)nc(-n2cc(-c3ccccc3)nn2)n1`, the “hERG current change (%, negative = inhibition) at 10uM” value was 8.93%.

Turning to `Cc1ccc(C2=N/C(=C/N3CCOCC3)C(=O)O2)cc1`, the “hERG current change (%, negative = inhibition) at 10uM” value was -17.8%.

As to `Cc1ccccc1NC(=O)CSCCN1C(=O)c2ccccc2C1=O`, the “hERG current change (%, negative = inhibition) at 10uM” value worked out at 7.68%.

On to `O=C(c1cc(-c2ccc(Cl)c(Cl)c2)on1)N1CCCCCC1`, for which the “hERG current change (%, negative = inhibition) at 10uM” value is on record as 8.29%. The value for `COc1cccc(NC(=O)CCC(=O)Nc2cccc(OC)c2)c1` was 10.5%. Turning to `CCN1CCN(C(=O)c2cc(-c3cccnc3)nc3ccc(Br)cc23)CC1`, the “hERG current change (%, negative = inhibition) at 10uM” value is given as -28.5%. The value for `COC(=O)c1ccccc1NC(=O)CN(c1ccc(OC)cc1)S(C)(=O)=O` was -25.4%; that for `O=[N+]([O-])c1cc([N+](=O)[O-])c(N2CCOCC2)cc1NCc1ccccc1` was 7.56%. Under `O=c1c2ccccc2nc(CSc2ncnc3nc[nH]c23)n1-c1cccc(C(F)(F)F)c1` stands -7.66%; under `Cc1ccccc1OCCSc1nnc(C)n1-c1ccccc1`, -5.36%; under `Cc1ccc(NC(=O)CN2C(=O)CSc3ccc(S(=O)(=O)N4CCCCC4)cc32)cc1`, 17.9%. Under `C=CCNc1oc(-c2cccs2)nc1C#N` stands -6.12%; under `NC(=O)CC(NC(=O)c1ccccc1)c1ccc(N2CCN(c3ccccn3)CC2)c([N+](=O)[O-])c1` (stereo not shown), 7.06%; under `COC(OC)c1nc(SCC(=O)Nc2cccc(Cl)c2)ncc1C(=O)O`, 14.5%. Consider `O=C(NCCN1CCOCC1)c1cnn2c1NC(c1cccs1)CC2C(F)(F)F` (stereo not shown), for which the “hERG current change (%, negative = inhibition) at 10uM” value was determined as 1.11%. The value for `COP(=O)(OC)c1nc(-c2cccc3ccccc23)oc1NCc1ccccc1` was -3.32%; that for `CCC(=O)OCCn1c(Br)nc2c1c(=O)[nH]c(=O)n2C` was -0.796%. Regarding `COc1ccc(S(=O)(=O)N(CC(=O)N/N=C/c2ccc(C(=O)O)cc2)Cc2ccccc2)cc1OC`, the “hERG current change (%, negative = inhibition) at 10uM” value stood at 10.9%. Under `CCOc1ccc(C(C)=O)cc1CSc1nc2nc(C)cc(C)n2n1` stands 20.1%; under `COC(=O)COc1cc(Cl)c(C=O)cc1OC`, 19.7%.

Take `O=C(N/N=C/c1ccc(Cl)cc1)c1cc2c(s1)-c1ccccc1CC2`: the “hERG current change (%, negative = inhibition) at 10uM” value amounted to 0.145%. With `O=C(CSc1ncnc2ccccc12)c1ccc2c(c1)OCCO2`, the “hERG current change (%, negative = inhibition) at 10uM” value is on record as -8.58%.
